Experimental data from the supplement of paper PMC3334620.
In all, about 33,000 sequences were measured (“E-score (-0.5 to 0.5)”: median about -0.035, highest 2% from about 0.35 on). The list shows a part of the results.

The sequences below were run against T1, Pdr3 (UniProt P33200) (assay: PBM E-score (8-mer binding enrichment) (E-score (-0.5 to 0.5)); higher = stronger / more preferred TF binding; most listed sequences are background and not binding sites). Settings: protein concentration: 200 nM; construct: GST-full length.
T1 sequence: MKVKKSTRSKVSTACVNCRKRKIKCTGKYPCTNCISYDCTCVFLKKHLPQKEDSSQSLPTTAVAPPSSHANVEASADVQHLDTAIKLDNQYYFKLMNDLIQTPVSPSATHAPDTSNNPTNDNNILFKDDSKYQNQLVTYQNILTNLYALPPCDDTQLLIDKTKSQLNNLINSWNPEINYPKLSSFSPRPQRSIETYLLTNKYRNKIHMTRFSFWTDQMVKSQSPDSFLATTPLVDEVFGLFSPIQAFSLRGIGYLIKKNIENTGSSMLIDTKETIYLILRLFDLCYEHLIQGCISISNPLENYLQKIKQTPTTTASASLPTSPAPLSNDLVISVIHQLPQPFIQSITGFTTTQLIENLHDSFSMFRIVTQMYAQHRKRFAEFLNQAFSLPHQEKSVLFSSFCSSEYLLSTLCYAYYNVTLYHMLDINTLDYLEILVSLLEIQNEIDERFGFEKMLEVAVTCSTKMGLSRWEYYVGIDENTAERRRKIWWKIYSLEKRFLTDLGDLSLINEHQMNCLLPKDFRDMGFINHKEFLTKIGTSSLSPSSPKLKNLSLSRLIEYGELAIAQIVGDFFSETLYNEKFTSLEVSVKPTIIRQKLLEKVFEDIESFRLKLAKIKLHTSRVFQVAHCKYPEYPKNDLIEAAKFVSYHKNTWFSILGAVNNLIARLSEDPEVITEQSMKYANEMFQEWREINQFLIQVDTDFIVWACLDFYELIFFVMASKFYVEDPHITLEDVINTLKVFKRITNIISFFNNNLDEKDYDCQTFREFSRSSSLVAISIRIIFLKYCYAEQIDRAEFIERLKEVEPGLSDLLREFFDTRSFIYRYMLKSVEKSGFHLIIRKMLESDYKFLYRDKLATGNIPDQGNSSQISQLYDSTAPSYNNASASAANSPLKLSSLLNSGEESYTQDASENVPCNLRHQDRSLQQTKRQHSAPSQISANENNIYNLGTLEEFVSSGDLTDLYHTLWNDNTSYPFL
Description: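 Universal 'all 10-mer' protein binding microarrays (Agilent AMADID 015681) probed with GST-tagged S. cerevisiae TFs (full-length or DBD) made by in vitro transcription/translation (PURExpress), about 100-200 nM. Bound TF was detected with fluorescent anti-GST. Each ungapped 8-mer (which stands for itself and its reverse complement) is scored by the PBM enrichment score (E-score), a modified Wilcoxon-Mann-Whitney statistic from -0.5 to +0.5, computed with the Universal PBM Analysis Suite. Scale: above 0.35 generally sequence-specific binding.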

Sequence | PBM E-score
GCGGTAGC | 0.1
CACCTGGC | -0.107
GAGTAGGC | 0.0149
GCTCGGCC | 0.0745
GCAAAGCA | -0.0785
CTATCGAC | -0.146
CTCCCGTC | 0.229
ACAGTACT | -0.0851
AGGGCTCA | -0.266
AATCGGGA | 0.252
ACAAATTC | 0.0513
CAATCGGC | 0.04
CACAATAA | -0.183
CCAAGCTC | 0.00387
CAGTATTC | 0.0217
GCCAAACA | 0.0815
TGTGCCAA | 0.0852
CCTGACAG | -0.0625
GCCGCACC | 0.197
CTGTACGC | -0.206
GCCGAAAA | 0.276
AGTCAACT | -0.277
CTAGTGCA | -0.104
AAGTTCGA | 0.0312
ATGCCTGC | -0.122

Sequence | PBM E-score
CTACGTAA | -0.0539
ATGGAGGC | -0.15
CATACAGA | 0.0415
TATGGCAA | -0.0456
CCTATCTC | 0.094
GACGGCTC | 0.0846
CTGGAGCA | -0.126
AAATACCC | 0.14
AAGCTTGT | -0.0147
GCCGTCAA | -0.048
CGAGCTTA | 0.0148
CCTGATCC | 0.211
AGCGACAA | -0.104
AAGGTTTG | -0.0185
CTTCTGCC | -0.0722
GTTTGGCA | -0.0402
AATGGTGT | -0.0618
ATATTTCC | 0.351
CCTGTCCC | 0.00774
TATGCCGA | 0.121
TGATCGAA | -0.143
GTCGGCGA | -0.0361
CAGCTCAG | -0.139
AGGGCGGA | 0.285
ACCAAGTG | -0.131

Sequence | PBM E-score
AGGGACTC | -0.257
CGTGTCCA | -0.00697
AGAACCTG | -0.235
ATGTCGTA | -0.238
GATTAAAC | 0.145
TAACGATA | 0.0093
CCCTTCAC | -0.139
GGTTCGTA | -0.0473
GCACCATA | -0.0603
CTGCCGTA | -0.124
CTTTTGTC | 0.098
TATCACAA | -0.0953
GGTCGAAA | -0.173
GACCCTAC | -0.142
CGCGGTAA | 0.36
AGGGCCTC | -0.0973
AAGGCTGT | -0.18
GGTACTCA | 0.0687
ATAGCGAT | -0.127
TAGAGCAA | -0.24
ATTCGAAG | -0.0309
AGCTAAAA | -0.084
ATGGCATG | 0.0068
CATTTTAG | 0.192
CGCTCCAC | -0.0506

Sequence | PBM E-score
ACAGCCTC | -0.168
TCTTTACA | -0.0498
AGGGAGTC | -0.36
AAGGTCGT | -0.298
AAAGCCTC | -0.0826
GGATACCA | 0.212
GATACCGA | -0.0263
GAGAGTAC | -0.116
CTACGGAA | 0.407
AACTTGAC | -0.144
CCCTGCAC | -0.0187
GCATTAGA | -0.0471
GCGCCGAC | 0.107
AGTGGAGC | -0.177
ATAAATCA | -0.0127
CCGGTGAA | 0.259
TATGCCAA | -0.0783
CGGAGCTA | 0.22
AGGTGGCA | -0.0746
AAGAGATC | -0.301
CATCTACG | 0.0137
AGCCCCAC | 0.018
AAACTCGC | -0.054
CCACTTAA | -0.0361
ACAGTTGC | 0.015

Sequence | PBM E-score
ATTTACCA | -0.00148
CCGCTTCC | 0.261
AGGTGCTC | -0.139
CAGTAACG | -0.0621
TACCTCGA | -0.0861
TCCCATAA | -0.14
AACACAGT | -0.0579
GGGCTGGA | 0.0575
CGTTCAAG | -0.0511
ACAGTGGC | -0.101
GCAGAGGA | -0.0872
CAGCTAAG | -0.274
CTGAAGTA | -0.0655
ACAACGTG | -0.0902
CGGCAACG | 0.2
GGCTAGAC | -0.0238
CTGCTTAA | -0.0633
CCAGTTAG | -0.168
CTGCCCAG | -0.232
CTGCAAAG | -0.224
GGGGAGCA | -0.102
AACCGGAG | 0.326
GCCGCCAC | -0.0473
CGGTAATC | 0.198
CTATCCTA | -0.0548

Sequence | PBM E-score
ATGGTTAG | -0.0134
CTCCACAC | -0.124
GCAAATCC | 0.107
AGCATCCA | -0.0909
ACTCATGG | -0.16
AGGGGCTG | -0.109
ATTTCTTC | 0.101
GCCTGTTA | -0.0943
GGCAACCA | 0.146
AGATGAAG | -0.141
CCACCGCC | -0.0862
ATTTGGCA | -0.104
GAGACTCA | -0.204
CCATTGCA | -0.277
CCGTAGCC | -0.0862
ACTTACTG | -0.0405
CAATTGAC | -0.0969
CTCGAACA | -0.0366
ACCGACCG | 0.129
AGTTCTAC | -0.225
CAGTTTGA | -0.0285
GCCGCTCC | 0.143
ACACCTGT | -0.0514
CGCTGCAA | -0.208
AAGGCGCT | -0.114

Sequence | PBM E-score
GTCACAAA | -0.0851
AATTCTCT | -0.117
CCCCGGAG | 0.355
GTCTGCCA | -0.122
ACGAAACA | -0.0431
GTCTCCGA | 0.3
ACTGGCCA | -0.0126
AAATTAAA | -0.0437
AATCTGCC | 0.00749
GCATCAGA | -0.0362
GTACCCTA | -0.269
AACGTCTT | -0.294
CGCTGACG | -0.0242
TATGTGCA | -0.0873
TATAAACA | -0.131
AGCTACCG | -0.041
AGTGTACG | -0.00617
ATCCAATA | 0.0632
TAAGCGGA | 0.245
CGTTAGCC | 0.00403
CCCAACCC | 0.0808
CAGAACTA | -0.0819
